US20230357152A1 (priority 2020, published 2023)

These molecules were tested on Septoria tritici.
Assay type: cell-based

Structure (SMILES) | Fungal growth at 31 ppm (%) SEPTTR
CO/N=C(/C(=O)OC)c1cccc(C)c1CO/N=C(\C)c1cccc(OC)n1 [Example 6] | 7%
CO/N=C(/C(=O)OC)c1cccc(C)c1CO/N=C(\C)c1cccc(C(F)F)n1 [Example 9] | 4%
CNC(=O)/C(=N/OC)c1cccc(C)c1CO/N=C(\C)c1cccc(C(F)F)n1 [Example 10] | 2%
CO/N=C(/C(=O)OC)c1cccc(C)c1CO/N=C(\C)c1cc(-c2ccc(F)cc2)sn1 [Example 11, Methyl (2E)-2-[2-[[(E)-1-[5-(4-fluorophenyl)isothiazol-3-yl]ethylideneamino]oxy-methyl]-3-methyl-phenyl]-2-methoxyimino-acetate] | 10%
CO/N=C(/C(=O)OC)c1cccc(C)c1CO/N=C(\C)c1ncccc1C(F)F [Example 24] | 0%
CO/N=C(/C(=O)OC)c1cccc(C)c1CO/N=C(\C)c1cc(C)ccn1 [Example 25] | 0%
CO/N=C(/C(=O)OC)c1cccc(C)c1CO/N=C(\C)c1ncccc1C(F)(F)F [Example 27, Methyl (2E)-2-methoxyimino-2-[3-methyl-2-[[(E)-1-[3-(trifluoromethyl)-2-pyridyl]-ethylideneamino]oxymethyl]phenyl]acetate] | 5%
CO/N=C(\C)c1ccnc(/C(C)=N/OCc2c(C)cccc2/C(=N\OC)C(=O)OC)c1 [Example 29, Methyl (2E)-2-methoxyimino-2-[2-[[(E)-1-[4-[(E)-N-methoxy-C-methyl-carbonimidoyl]-2-pyridyl]ethylideneamino]oxymethyl]-3-methyl-phenyl]acetate] | 0%
CNC(=O)/C(=N/OC)c1cccc(C)c1CO/N=C(\C)c1cc(/C(C)=N/OC)ccn1 [Example 30, (2E)-2-Methoxyimino-2-[2-[[(E)-1-[4-[(E)-N-methoxy-C-methyl-carbonimidoyl]-2-pyridyl]ethylideneamino]oxymethyl]-3-methyl-phenyl]-N-methyl-acetamide] | 2%
CNC(=O)/C(=N/OC)c1cccc(C)c1CO/N=C(\C)c1ncccc1C(F)F [Example 33] | 4%
CO/N=C(/C(=O)OC)c1cccc(C)c1CO/N=C(\C)c1cc(C(F)F)ccn1 [Example 34] | 0%
CNC(=O)/C(=N/OC)c1cccc(C)c1CO/N=C(\C)c1cc(C(F)F)ccn1 [Example 37] | 3%
CNC(=O)/C(=N/OC)c1cccc(C)c1CO/N=C(\C)c1ncsc1C(F)(F)F [Example 41] | 2%
CO/N=C(/C(=O)OC)c1cccc(C)c1CO/N=C(\C)c1cc(C(F)(F)F)cc(C)n1 [Example 46] | 0%
CO/N=C(/C(=O)OC)c1cccc(C)c1CO/N=C(\C)c1ccnc(C(F)(F)F)c1 [Example 47] | 0%
CO/N=C(/C(=O)OC)c1cccc(C)c1CO/N=C(\C)c1cc(C#N)ccn1 [Example 54] | 4%
CNC(=O)/C(=N/OC)c1cccc(C)c1CO/N=C(\C)c1cc(C#N)ccn1 [Example 55] | 8%
CO/N=C(/C(=O)OC)c1cccc(C)c1CO/N=C(\C)c1cccc(C)n1 [Example 65] | 0%
CNC(=O)/C(=N/OC)c1cccc(C)c1CO/N=C(/c1cc(C(F)(F)F)ccn1)C1CC1 [Example 70, (2E)-2-[2-[[(E)-[cyclopropyl-[4-(trifluoromethyl)-2-pyridyl]methylene]amino]oxymethyl]-3-methyl-phenyl]-2-methoxyimino-N-methyl-acetamide] | 0%
CO/N=C(/C(=O)OC)c1cccc(C)c1CO/N=C(/c1cc(C(F)(F)F)ccn1)C1CC1 [Example 72, Methyl (2E)-2-[2-[[(E)-[cyclopropyl-[4-(trifluoromethyl)-2-pyridyl]methylene]amino]-oxymethyl]-3-methyl-phenyl]-2-methoxyimino-acetate] | 4%
CO/N=C(/C(=O)OC)c1cccc(C)c1CO/N=C(\C)c1cncc(C(F)(F)F)c1 [Example 84, Methyl (2E)-2-methoxyimino-2-[3-methyl-2-[[(E)-1-[5-(trifluoromethyl)-3-pyridyl]ethyl-ideneamino]oxymethyl]phenyl]acetate] | 1%
CO/N=C(/C(=O)OC)c1cccc(C)c1CO/N=C(\C)c1cnc(Cl)c(Cl)c1 [Example 87] | 1%
CNC(=O)/C(=N/OC)c1cccc(C)c1CO/N=C(\C)c1cnc(Cl)c(Cl)c1 [Example 88] | 9%
CO/N=C(/C(=O)OC)c1cccc(C)c1CO/N=C(\C)c1ccnc(SC)c1 [Example 94] | 1%

Each molecule was assayed on Botrytis cinerea.
Assay type: cell-based

Structure (SMILES) | Fungal growth at 31 ppm (%) BOTRCI
CO/N=C(/C(=O)OC)c1cccc(C)c1CO/N=C(\C)c1cccc(C(F)(F)F)n1 [Example 1] | 20%
CNC(=O)/C(=N/OC)c1cccc(C)c1CO/N=C(\C)c1cccc(OC)n1 [Example 3] | 8%

The molecules below were run on Fusarium culmorum.
Assay type: cell-based

Structure (SMILES) | Fungal growth at 31 ppm (%) FUSACU
CNC(=O)/C(=N/OC)c1cccc(C)c1CO/N=C(\C)c1cccc(C(F)(F)F)n1 [Example 2] | 7%
CO/N=C(/C(=O)OC)c1cccc(C)c1CO/N=C(\C)c1cc(C(F)(F)F)ccn1 [Example 4, Methyl (2E)-2-methoxyimino-2-[3-methyl-2-[[(E)-1-[4-(trifluoromethyl)-2-pyridyl]ethylideneamino]oxymethyl]phenyl]acetate] | 10%
CNC(=O)/C(=N/OC)c1cccc(C)c1CO/N=C(\C)c1cc(C(F)(F)F)ccn1 [Example 5, (2E)-2-methoxyimino-N-methyl-2-[3-methyl-2-[[(E)-1-[4-(trifluoromethyl)-2-pyridyl]-ethylideneamino]oxymethyl]phenyl]acetamide] | 8%
CNC(=O)/C(=N/OC)c1cccc(C)c1CO/N=C(\C)c1cccc(C(F)F)n1 [Example 10] | 9%
CO/N=C(/C(=O)OC)c1cccc(C)c1CO/N=C(\C)c1cc(-c2ccc(F)cc2)on1 [Example 14] | 20%
CNC(=O)/C(=N/OC)c1cccc(C)c1CO/N=C(\C)c1cc(-c2ccc(F)cc2)on1 [Example 15] | 20%
CNC(=O)/C(=N/OC)c1cccc(C)c1CO/N=C(\C)c1cc(-c2ccccc2)on1 [Example 23] | 5%
CNC(=O)/C(=N/OC)c1cccc(C)c1CO/N=C(\C)c1cc(/C(C)=N/OC)ccn1 [Example 30, (2E)-2-Methoxyimino-2-[2-[[(E)-1-[4-[(E)-N-methoxy-C-methyl-carbonimidoyl]-2-pyridyl]ethylideneamino]oxymethyl]-3-methyl-phenyl]-N-methyl-acetamide] | 10%
CO/N=C(/C(=O)OC)c1cccc(C)c1CO/N=C(\C)c1cc(C(F)F)ccn1 [Example 34] | 10%
CNC(=O)/C(=N/OC)c1cccc(C)c1CO/N=C(\C)c1ncsc1C(F)(F)F [Example 41] | 9%
CO/N=C(/C(=O)OC)c1cccc(C)c1CO/N=C(\C)c1cc(C(F)(F)F)cc(Cl)n1 [Example 42] | 10%
CO/N=C(/C(=O)OC)c1cccc(C)c1CO/N=C(\C)c1cc(C(F)(F)F)cc(C)n1 [Example 46] | 1%
CO/N=C(/C(=O)OC)c1cccc(C)c1CO/N=C(\C)c1ccnc(C(F)(F)F)c1 [Example 47] | 8%
CNC(=O)/C(=N/OC)c1cccc(C)c1CO/N=C(\C)c1cccc(C)n1 [Example 81] | 9%
